Experimental data from PubChem BioAssay AID686978 (National Center for Advancing Translational Sciences (NCATS), 2013).
About 64,000 (15%) of roughly 420,000 compounds were called active. This list was built around the results that the source calls inconclusive (neither active nor inactive); the mix of calls is not that of the screen. Calls follow the shape of the dose curve; as a rule, active = well fitted inhibition curve with a large enough effect; inconclusive = small, poorly fitted or top-dose-only effect; inactive = flat fitted curve, though single readings scatter. Potencies of inconclusive entries are left out as doubtful fits.

Assay: qHTS for Inhibitors of human tyrosyl-DNA phosphodiesterase 1 (TDP1): qHTS in cells in absence of CPT; also: nearly all actives have a fitted effect of over 55% in size
Settings: DT40 Tdp1-/- hTDP1 cells, no CPT, ATP luminescence, 48 h; activity change, negative = growth inhibition: at 46.2 µM (top of the series) unless noted
Method in brief: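 Compound effects on proliferation are scored in DT40 Tdp1-/-;hTDP1 cells in the absence of CPT. ATP levels (CellTiter-Glo luminescence) are recorded after a ≥48 hr, 37 °C incubation.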
% is scaled to controls: 0 for no effect and ±100 for the full control effect; potency is read from the fitted curve at half-maximal effect; tags tell the direction and shape of the fitted curve.

| Structure (SMILES) | Potency | activity change, negative = growth inhibition |
| --- | --- | --- |
| COc1cnc(-c2ccccn2)nc1Oc1ccccc1Cl | inconclusive [inhibitor, single point] |  |
| CCOc1ccc(C(=O)Nc2ccc(Cl)c(-c3nc4cc(C)cc(C)c4o3)c2)cc1 |  | inactive: -13.9% |
| CCC1=[N+](C)CCn2c(C)ccc21 |  | inactive: -24.5% |
| CC(=O)O[C@H]1C[C@@]2(C)[C@@H](C[C@@H](O)[C@H]3[C@@]4(C)CC[C@@H](O)[C@@H](C)[C@@H]4CC[C@@]32C)/C1=C(\CCC=C(C)C)C(=O)O | inconclusive [inhibitor, single point] |  |
| COc1cc2c(cc1OC)C(C)N(C(=O)CCc1c[nH]c3ccccc13)CC2 (centres undefined) | inconclusive [inhibitor, single point] |  |
| CCOC(=O)c1c(C)[nH]c(C(=O)CN2C(=O)NC(C)(c3ccc4ccccc4c3)C2=O)c1C (centres undefined) | inconclusive [inhibitor, single point] |  |
| Nc1nc(-c2nonc2N)no1 |  | inactive: 0.427% |
| COc1ccc(S(=O)(=O)N2CCCC(C(=O)N3CCCCCC3)C2)cc1 (centres undefined) | active: 18.4 µM |  |
| CCc1ccc2occ(CC(=O)NCc3ccccc3)c2c1 | inconclusive [inhibitor, partial curve] |  |
| CCOC(=O)N1CCN(C(=O)CSc2nnc(-c3cccc(Cl)c3)o2)CC1 | inconclusive [inhibitor, partial curve] |  |
| O=C(NC1CCN(C(=O)Nc2ccccc2Cl)CC1)c1ccco1 |  | inactive: -6.55% |
| CCOC(=O)C1CCCN(C(=O)C2(c3ccc(Cl)cc3)CCCC2)CC1 (centres undefined) | inconclusive [inhibitor, single point] |  |
| O=C(Nc1scc(-c2ccc(F)cc2)c1C(=O)O)c1ccco1 | inconclusive [inhibitor, single point] |  |
| CN1CCN(c2nc(-c3ccccc3)nc(-c3ccc(F)cc3)c2C#N)CC1 | inconclusive [inhibitor, single point] |  |
| C=CCNC(=O)c1c(N)n(-c2ccc3c(c2)OCO3)c2nc3ccccc3nc12 | active: 13 µM |  |
| COc1ccc(-c2ccc(-c3cc(=O)oc4cc(OC)c(OC)c(OC)c34)cc2)cc1F | active: 23.1 µM |  |
| COc1ccc(NC(=O)Cc2ccc(NC(=O)N3CCCCc4ccccc43)cc2)c(OC)c1 | inconclusive [inhibitor, single point] |  |
| CC(C)c1ccc(NC(=O)c2cc(S(=O)(=O)NCCC3=CCCCC3)ccc2F)cc1 | active: 18.4 µM |  |
| S=C1NC2=C(CCC/C2=C\c2ccc(Cl)cc2)C(c2ccc(Cl)cc2)N1 (centres undefined) | active: 23.1 µM |  |
| O=C(c1ccccc1)c1ccccc1C(=O)N1CCN(Cc2ccccc2F)CC1 | inconclusive [inhibitor, single point] |  |
| CCOc1cc(/C=N/NC(=O)N/N=C/c2ccc(O)c(OCC)c2)ccc1O | active: 2.91 µM |  |
| CCOC(=O)C1CCC(CN(Cc2ccc(OC)cc2)S(=O)(=O)c2ccc(F)c(C(=O)Nc3cc(Cl)ccc3OC)c2)CC1 (centres undefined) |  | inactive: -16.5% |
| COc1cccc(CN(C)CC(=O)Nc2sc3c(c2C#N)CCC3)c1 | inconclusive [inhibitor, partial curve] |  |

| Structure (SMILES) | Potency | activity change, negative = growth inhibition |
| --- | --- | --- |
| COc1cc(/C=C2\N=C(C)OC2=O)cc(OC)c1OC | inconclusive [inhibitor, single point] |  |
| Cn1cc(-c2cc3n(n2)CCC(=O)N3CCCC(=O)NCc2ccccc2)c2ccccc21 | inconclusive [inhibitor, partial curve] |  |
| COc1ccc(S(=O)(=O)CCC(=O)N2CCN(c3ccccc3F)CC2)cc1 | inconclusive [inhibitor, single point] |  |
| COc1ccc(CNC(=O)CN(C)S(=O)(=O)c2ccc3[nH]c4c(c3c2)CCCC4)cc1 | inconclusive [inhibitor, single point] |  |
| COc1ccc(Nc2cc(C)c3cc([N+](=O)[O-])ccc3n2)cc1 | inconclusive [inhibitor, single point] |  |
| O=C(COC(=O)c1cc(=O)[nH]c2ccccc12)Nc1nc(-c2ccc(F)cc2)cs1 |  | inactive: -11.6% |
| Cc1csc2ncnc(N3CCN(C(=S)Nc4ccc(F)cc4F)CC3)c12 | active: 14.6 µM |  |
| CC(C)CC1(C)N=C(c2ccccc2)C(=S)N1 (centres undefined) | inconclusive [inhibitor, partial curve, poor fit] |  |
| CCN(CC)C(=O)[C@H]1CC(CC(=O)NCC23CC4CC(CC(C4)C2)C3)C(=O)N2CCc3c([nH]c4ccccc34)[C@]12C (some centres undefined) | active: 8.2 µM |  |
| Cc1ccc(CNC(=O)CN2C(=O)COc3ccc(S(=O)(=O)N4CCC(C)CC4)cc32)cc1 |  | inactive: -28.6% |
| COc1ccccc1CNC(=O)CSC(=S)N1CCCC1 |  | inactive: -16.4% |
| CC1CCCCC1NC(=O)/C=C/c1nc2ccccc2s1 (centres undefined) | inconclusive [inhibitor, single point] |  |
| O=C(c1ccco1)N(CCC(c1ccccc1)c1ccco1)Cc1ccccc1 (centres undefined) | inconclusive [inhibitor, partial curve] |  |
| COc1ccc(CCNC(=O)c2cc(-c3ccc(C)cc3O)n[nH]2)cc1OC | active: 20.6 µM |  |
| O=C(CNC(=O)OCc1ccccc1)NC1CCCCCC1 |  | inactive: 3.79% |
| CCOc1cc2[nH]c(=O)n(CCCN3CCN(c4ccc(OC)cc4)CC3)c(=O)c2cc1OCC | inconclusive [inhibitor, partial curve, poor fit] |  |
| COc1ccc(/C=C/C(=O)N2CCN(C)CC2)cc1S(=O)(=O)N1CCCCC1 | inconclusive [inhibitor, single point] |  |
| O=C(c1ccncc1)N1CCN(S(=O)(=O)c2ccc(F)cc2)CC1 |  | inactive: 26.8% |
| CCOc1ccc(-c2cnc3n2CCC3)cc1 | inconclusive [inhibitor, single point] |  |
| N[C@@H](Cc1cc(I)c(Oc2ccc(O)cc2)c(I)c1)C(=O)O |  | inconclusive: -33.3% [inhibitor] |
| Cc1ccc(NC(=O)N2CCc3ccccc32)cc1C | inconclusive [inhibitor, single point] |  |
| CC1(C)CC(N(Cc2ccc(F)cc2)C(=O)c2ccc(F)cc2)CCO1 (centres undefined) | inconclusive [inhibitor, single point] |  |
| CCN(CC)c1cccc(OC2=NS(=O)(=O)c3ccccc32)c1 | active: 16.4 µM |  |

| Structure (SMILES) | Potency | activity change, negative = growth inhibition |
| --- | --- | --- |
| O=C1NC(=S)N(C(=O)c2ccc(F)cc2)/C1=C/c1ccccc1 | active: 13 µM |  |
| Nc1c(NC/C=C\COc2cc(CN3CCCCC3)ccn2)c(=O)c1=O |  | inactive: -18.4% |
| O=C(O)CN(CC(=O)O)CC1=CC2C(=CC1=O)Oc1cc(O)c(CN(CC(=O)O)CC(=O)O)cc1C21OC(=O)c2ccccc21 (centres undefined) | inconclusive [inhibitor, single point] |  |
| Oc1ccccc1C=NNC(=S)NN=Cc1ccccc1O | active: 4.61 µM |  |
| CCS(=O)(=O)NCCCc1ccccc1 | inconclusive [inhibitor, single point] |  |
| CSc1cccc(NC(=O)c2ccc3c(c2)CCCN3S(C)(=O)=O)c1 | inconclusive [inhibitor, single point] |  |
| Cc1ccc(S(=O)(=O)Nc2ccc3c(c2)nc(CCN2CCCC2)n3C)cc1 | inconclusive [inhibitor, partial curve, poor fit] |  |
| N#Cc1cc2c(nc1SCc1ccncc1)CCC2 | inconclusive [inhibitor, single point] |  |
| CCCN1CCC(C)(C(=O)Nc2ccccc2Oc2ccccc2)C1 (centres undefined) | inconclusive [inhibitor, single point] |  |
| COc1cc(OC)c(C2=NOC(C(=O)Nc3ccc4c(c3)OCO4)C2)cc1Cl (centres undefined) | inconclusive [inhibitor, single point] |  |
| CC1CC(=O)N(c2ccc(NCc3ccc(Cl)cc3)c([N+](=O)[O-])c2)C1=O (centres undefined) | inconclusive [inhibitor, partial curve, poor fit] |  |
| COc1ccc(CCNC(=S)Nc2cc(C)cc(C)c2)cc1 | active: 23.1 µM |  |
| COC(=O)c1cc(S(=O)(=O)n2nc(C)cc2C)c(Cl)cc1Cl | inconclusive [inhibitor, full curve, poor fit] |  |
| COc1ccc(C)cc1NCC(=O)Nc1ccc(C(C)(C)C)cc1 | inconclusive [inhibitor, single point] |  |
| COc1ccc(C2CC(c3ccccc3)=NN2C(=O)COC(=O)c2nc3nc(C)cc(C)n3n2)cc1 (centres undefined) | inconclusive [inhibitor, single point] |  |
| COc1ccc(Cl)cc1NC(=O)CN(C)C1CCCCC1 | inconclusive [inhibitor, partial curve, poor fit] |  |
| CSc1cccc(NC(=O)C(=O)NCc2ccccc2)c1 |  | inactive: -7.79% |
| CC1(C)CC(=O)C(N=Nc2cccc(S(=O)(=O)N3CCOCC3)c2)=C(O)C1 |  | inactive: 4.62% |
| COC(=O)/C=C/CC(C)OS(N)(=O)=O (centres undefined) |  | inactive: 11.7% |
| Cc1ccc(S(=O)(=O)N(Cc2ccc(F)cc2)Cc2ccco2)cc1 | inconclusive [inhibitor, single point] |  |
| COCCNc1ncnc2ccc(-c3cccc(NS(C)(=O)=O)c3)cc12 | inconclusive [inhibitor, single point] |  |
| Cc1c(NC(=S)N/N=C/c2ccc(N(C)C)cc2)c(=O)n(-c2ccccc2)n1C | inconclusive [inhibitor, single point] |  |
| c1ccc(Nc2ncnc3c2oc2ccccc23)cc1 | inconclusive [inhibitor, partial curve] |  |
